One compound from PubChem BioAssay (NCI) can be followed below.

The subject of this test is NCI-H322M lung. The experiment in a line: NCI anticancer screen, dose series, 48 h.

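Assay format: 96-well plates, 48-hour exposure. At the GI50, growth is halved. TGI is the concentration that stops growth completely.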

In the case of `CS(=O)(=O)Nc1cc(-c2ccc3ncc(C#N)c(NCc4cccc(F)c4)c3c2)cnc1Cl`, the GI50 was 0.449 µM and the TGI was found to be 9.35 µM.
